B1: LINE1-mini (parent)
chain: GGCAGAGCUCAACACAGCGUGGCAAAGUGGCUGUGGCUAGACUGCC

These results are taken from the RNAGym collection of RNA variant scans (doi:10.7554/elife.90254).

Read counts are not given, so values of variants with three or more changes are uncertain.

The data set covers variants of B1. In words: self-cleavage, relative activity (ratio to wild type); higher = more cleavage; in vitro, sequencing; the parent is a self-cleaving ribozyme.
Take A16U U20C G35U G40U: the self-cleavage was determined as 0.05.
Next, G17C A24C U32G U43A: 0.01.
G17C A26U G44A: the self-cleavage is 0.17.
As for G17A A26C G30C G33C U34A, the self-cleavage is 0.03.
For G17C G27C G30A U32G the value was 0.04; for G17A G22A G40U, 0.01.
For G17A C18G G33A the value was 0.04.
Regarding G17C A25U A26U G36C, the self-cleavage turned out to be 0.04.
For G17C G19U C37G the value was 0.02; for A16U U34G U43C, 0.02; for G17U A24C G29U, 0.09.
For G17A U20C A26C G29U U38C A39C the value was 0.05; for G17A U20C G30A C31A G35C, 0.01; for A16U G30A G35U, 0.04.
Next, G17A G21U C31G: 0.05; G17A U20C C23G C42A: 0.02; G17A A26C G33U U34C: 0.03.
G17A G19A G30A: the self-cleavage worked out at 0.53.
For G17A G19A G30U the value was 1.39; for G17C A25U G29C G35A, 0.02; for G17A U38G C42U, 0.
For G17C U20C C45G the value was 0.07.
Next, G17A G35C C42U G44A: 0.02; G17C A25U C46U: 0.04.
Regarding G17A G27C C31U U38G C45A, the self-cleavage came out at 0.
Next, G17C G22U A26G G30C G35C G36A: 0.02; G17C G21U G35A C37U C46U: 0.01.
For A16U G22U A25U A41U U43G G44U C46U the value was 0.11; for G17A C18A C31A, 0.06; for G17A C31G C37G, 0.01.
For A16U U34G G36C the value was 0.03.
G17C C31U G35A C37G: the self-cleavage came out at 0.01.
Next, G17C G33C C42G: 0.01; G17A C31U G44A: 0.02.
For G17A G21U U43A the value was 0.09; for G17C G22U G36C, 0.02.
For G17A U20G G33C C37U the value was 0.01; for G17A C31A A41C, 0.02.
On to A16U G27C C46U, for which the self-cleavage was determined as 0.82.
Next, G17C A24U U32A G35U C37U: 0.04; G17C G29U A41C: 0.02.
For G17A G19A G22U the value was 2.84.
Next, G17A G29C G40U: 0.14.
Turning to A16U U20A A39U, the self-cleavage stood at 0.02.
For G17A G27A U28C G35U C46A the value was 0.
For G17A A24G C46G the value was 0.09; for G17A G40U C45A, 0; for G17U A24C C46G, 0.13.
Next, G17C U20G C23U C31U U38A: 0.05; G17C G44U C46G: 0.08.
Regarding G17A G21C U38A, the self-cleavage is 0.2.
For A16U G40A U43A the value was 0.04.
For the variant G17A C23G G29A G40C, the self-cleavage amounted to 0.04.
As for G17A U38C A39U, the self-cleavage was found to be 0.04.
Consider A16U G21U G44A, for which the self-cleavage was determined as 0.01.
For A16U U32G A39C the value was 0.18; for G17C A26G G27A, 0.65.
For G17C C23A G35C C45G the value was 0.11.
For A16U U20G C31U, the self-cleavage was 0.01.
Regarding G17A G19A G36A, the self-cleavage was determined as 0.08.
Next, G17C G19U U28C: 0.17.
For G17C U20G G27U the value was 0.12; for A16U G29U G30U C46A, 0.22.
Turning to G17A C31G A41U, the self-cleavage came to 0.03.
Next, G17C G30U A39C: 0.02; G17A A24U G40U C42U: 0; A16U U43G G44U: 0.02.
For A16U U34G G40C the value was 0.03.
In the case of G17C A25G G29C G40C, the self-cleavage turned out to be 0.03.
Turning to G17C G33U U38G, the self-cleavage was determined as 0.03.
Next, G17C A41C C42U: 0.13; G17C A26G C42U: 0.04.
With A16U G35C U38G, the self-cleavage stood at 0.04.
For G17A A26C C31A A39G C46G the value was 0.04.
Next, G17A A25U G30U U34A G36A G40A A41G: 0.02; G17C U34G C42G: 0.01; G17A G27A G35U A39C: 0.04.
For A16U U32G G44C the value was 0.09; for G17A C31A U38G, 0.03; for A16U G21A U32G, 1.63.
In the case of G17A U20A A25C G29A, the self-cleavage stood at 0.08.
For G17A G21U C45G the value was 0.05; for G17C C31G C42G, 0.02.
For G17A U32A A39U the value was 0.01.
For A16U G29A U43A the value was 0.03; for A16U G21C G29A G33A U38A, 0.05; for G17C G33A A39C, 0.04.
As to A16U G30U G36A, the self-cleavage is 0.03.
Next, A16U U32G G33U U34C: 0.04; G17A G29U C37G: 0.01.
For G17C G33U A41U the value was 0.01; for G17A G21C C23A G40C U43A C46G, 0.01.
Take A16U G33U U34G G35A: the self-cleavage was 0.02.
Consider G17C G40U C45G, for which the self-cleavage is 0.03.
Take G17A A26U C37U: the self-cleavage came to 0.02.
Next, G17A G21A C23G G36C: 0.04.
Next, G17C A24G C45G: 0.13; G17A G22U U43A G44C: 0.13.
For G17C G21U C23A the value was 2.14; for G17A U20A U34C, 0.01; for G17C C23G U28C, 0.15.
Regarding A16U G36C G40U, the self-cleavage was found to be 0.02.
For G17A A26G U32C U34G C42U the value was 0.01.
Next, G17C C18A C31A: 0.08.
For G17A U20C C46U the value was 0.06; for G17C G27C C31G, 0.03; for G17C G33A C42G U43G, 0.01.
In the case of A16U G29C G36C, the self-cleavage amounted to 0.11.
Next, G17C U32G G36C: 0.13; G17A G19U A25U G29C: 0.08.
Next, G17A U34C C45A: 0.03.
For A16U G21C G44A the value was 0.04; for G17C A24U A26C G33A A41C, 0.06.
Turning to A16U G22A A24G C31G U34G, the self-cleavage turned out to be 0.01.
For the variant G17C C23A A25C C46A, the self-cleavage came out at 0.03.
Next, G17C G22C G40C: 0.02; A16U U20A G35A: 0.03; G17C U43G C45A: 0.03.
Next, A16U U34C C46A: 0.08.
Turning to G17A U38C A41C, the self-cleavage was determined as 0.03.
Next, G17C G21U G27C C45A: 1.63; G17A C23U U28A U32A: 0.02; G17A G27U G29U U34A: 0.02.
For G17A G33U C42A the value was 0.04.
For G17A G19U G22U C23A A25C the value was 0.38.
G17A A25G A41U: the self-cleavage was 0.05.
Next, A16U G21C A24G: 0.04.
For A16U U20G C31A U32C C37A the value was 0.02.
For the variant G17C C18A G44C, the self-cleavage was found to be 0.06.
For G17C C18A G19U U34G the value was 0.05; for G17A C23G C42U, 0.04; for G17C G21C C46A, 2.29.
Next, G17C G33A U38G: 0.01.
As for G17A C23A A25C U38G C46U, the self-cleavage was 0.01.
For A16U G27C G40A C46G the value was 0.04.
As for G17C C23U C31A G44A, the self-cleavage was found to be 0.09.
In the case of G17C G35A G36A, the self-cleavage amounted to 0.08.
For A16U G21U G33U the value was 0.02; for G17C A26C G35U C37U, 0.02; for G17C G22U A39C, 0.23.
Next, G17C G19U G36C: 0.03; G17C G21C U34G: 0.02.
For G17A A25G G29U the value was 0.09; for G17A G19C G29C, 0.19; for G17A A26U G35A U43A, 0.05.
In the case of G17C G36U C45U, the self-cleavage turned out to be 0.08.
As for G17C A25U G30A, the self-cleavage is 0.23.
For G17A G21C U34G the value was 0.01.
On to A16U U28G C46G, for which the self-cleavage was determined as 0.08.
For G17A U34C C37A the value was 0.02; for G17C G22U A25U G30U C37G, 0.01; for G17A G27A A41U C42U, 0.05.
For G17C G21U U38A the value was 0.33.
For G17C G21U U38G the value was 0.05; for G17A G22C C31A G40A, 0.01; for G17A U20A C45G, 0.01.
Regarding G17A C42G U43A, the self-cleavage came to 0.01.
For A16U G22U U43G the value was 0.01; for G17A G22U U43C, 0.02.
Next, G17A C37U C45A: 0.02; G17C C18G G44A: 0.01.
Next, G17A G29U G30U U34C C45U: 0.02; G17A A24C G30A C31U: 0.14.
In the case of G17A G22C C31U, the self-cleavage worked out at 0.14.
For G17A G21A A24G G33A the value was 0.13; for G17C G22C G30C G44C, 0.1.
Next, G17A C18A G33A: 0.02.
